Experimental data: PMC7806638
These are yes or no findings as the source states them, for the method shown. For some of these results: Binding seen in cells or lysates may run through a third protein. Some results given as binding are weak or reduced against the parent protein; the word gives no strength. Each block holds one molecule with its values, some of them ahead of it.

Chains of the proteins cited; added tags and fusions are not shown. Lines headed by an entry give the natural chain unless they say otherwise; changes in a name come on top. A line that says so, or that is headed by a name, gives the form on record, which may keep a tag or linker.
UniProt P06748: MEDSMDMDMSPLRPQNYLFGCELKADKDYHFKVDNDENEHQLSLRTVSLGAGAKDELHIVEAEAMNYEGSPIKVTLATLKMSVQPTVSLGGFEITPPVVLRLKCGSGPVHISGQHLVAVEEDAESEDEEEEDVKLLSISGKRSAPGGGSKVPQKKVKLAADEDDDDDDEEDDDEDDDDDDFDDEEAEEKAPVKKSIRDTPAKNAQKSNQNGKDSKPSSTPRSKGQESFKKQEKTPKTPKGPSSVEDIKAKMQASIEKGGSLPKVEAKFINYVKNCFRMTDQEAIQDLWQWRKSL
mRFP1-labeled nucleophosmin with C21 substituted to alanine (P06748, form named): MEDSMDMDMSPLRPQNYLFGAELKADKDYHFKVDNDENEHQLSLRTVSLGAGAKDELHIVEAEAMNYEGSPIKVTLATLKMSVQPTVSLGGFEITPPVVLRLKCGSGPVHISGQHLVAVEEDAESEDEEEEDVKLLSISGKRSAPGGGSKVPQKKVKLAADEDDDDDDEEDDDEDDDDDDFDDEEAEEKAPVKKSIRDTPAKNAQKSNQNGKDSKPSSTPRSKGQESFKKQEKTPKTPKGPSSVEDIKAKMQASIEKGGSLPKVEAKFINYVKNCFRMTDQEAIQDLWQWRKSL
eGFP-labeled nucleophosmin with C21 substituted to phenylalanine (P06748, form named): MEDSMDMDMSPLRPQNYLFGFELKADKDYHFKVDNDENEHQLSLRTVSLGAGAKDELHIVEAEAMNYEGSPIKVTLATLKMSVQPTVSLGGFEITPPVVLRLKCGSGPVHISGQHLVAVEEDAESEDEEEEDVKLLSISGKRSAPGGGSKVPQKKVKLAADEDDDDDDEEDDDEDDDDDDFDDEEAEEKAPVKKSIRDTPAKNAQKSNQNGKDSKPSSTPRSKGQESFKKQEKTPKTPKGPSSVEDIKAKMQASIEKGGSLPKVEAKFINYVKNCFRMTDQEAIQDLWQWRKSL
UniProt Q8N726: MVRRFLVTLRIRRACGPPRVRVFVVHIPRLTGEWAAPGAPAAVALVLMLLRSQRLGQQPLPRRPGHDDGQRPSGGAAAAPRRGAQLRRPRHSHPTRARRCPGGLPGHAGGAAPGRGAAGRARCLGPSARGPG

How the values were obtained:
[1] = molecular target: eGFP-labeled nucleophosmin with C21 substituted to alanine (human) (UniProt P06748); test: native gel or EMSA; native PAGE: lysates (10 mM Tris pH 7.5, 150 mM NaCl, 0.5 mM EDTA, 0.5% NP-40) mixed with native buffer (50 mM Tris pH 6.8, 10 mM DTT, 10% glycerol), not boiled, 7.5% Tris-glycine gel without SDS, Western blot; some samples from cells treated with NSC348884 (10 µM, 24 h)
[2] = molecular target: eGFP-labeled nucleophosmin with C21 substituted to alanine (human) (UniProt P06748); test: native gel or EMSA; semi-native PAGE: same unboiled lysates in native buffer on a gel with SDS (2%), Western blot; some samples from cells treated with NSC348884 (10 µM, 24 h)
[3] = molecular target: mRFP1-labeled wild-type nucleophosmin (human) (UniProt P06748); test: native gel or EMSA; native PAGE: lysates (10 mM Tris pH 7.5, 150 mM NaCl, 0.5 mM EDTA, 0.5% NP-40) mixed with native buffer (50 mM Tris pH 6.8, 10 mM DTT, 10% glycerol), not boiled, 7.5% Tris-glycine gel without SDS, Western blot; some samples from cells treated with NSC348884 (10 µM, 24 h)
[4] = molecular target: eGFP-labeled nucleophosmin with deletion of the first 25 amino acids (human) (UniProt P06748); test: as above
[5] = molecular target: eGFP-labeled nucleophosmin with deletion of the first 25 amino acids (human) (UniProt P06748); test: native gel or EMSA; semi-native PAGE: same unboiled lysates in native buffer on a gel with SDS (2%), Western blot; some samples from cells treated with NSC348884 (10 µM, 24 h)
[6] = molecular target: eGFP-labeled nucleophosmin with deletion of the first 100 amino acids (human) (UniProt P06748); test: native gel or EMSA; native PAGE: lysates (10 mM Tris pH 7.5, 150 mM NaCl, 0.5 mM EDTA, 0.5% NP-40) mixed with native buffer (50 mM Tris pH 6.8, 10 mM DTT, 10% glycerol), not boiled, 7.5% Tris-glycine gel without SDS, Western blot; some samples from cells treated with NSC348884 (10 µM, 24 h)
[7] = molecular target: eGFP-labeled nucleophosmin with deletion of the first 100 amino acids (human) (UniProt P06748); test: native gel or EMSA; semi-native PAGE: same unboiled lysates in native buffer on a gel with SDS (2%), Western blot; some samples from cells treated with NSC348884 (10 µM, 24 h)
[8] = molecular target: eGFP-labeled nucleophosmin with deletion of the first 117 amino acids (human) (UniProt P06748); test: native gel or EMSA; native PAGE: lysates (10 mM Tris pH 7.5, 150 mM NaCl, 0.5 mM EDTA, 0.5% NP-40) mixed with native buffer (50 mM Tris pH 6.8, 10 mM DTT, 10% glycerol), not boiled, 7.5% Tris-glycine gel without SDS, Western blot; some samples from cells treated with NSC348884 (10 µM, 24 h)
[9] = molecular target: eGFP-labeled nucleophosmin with deletion of the first 117 amino acids (human) (UniProt P06748); test: native gel or EMSA; semi-native PAGE: same unboiled lysates in native buffer on a gel with SDS (2%), Western blot; some samples from cells treated with NSC348884 (10 µM, 24 h)
[10] = molecular target: eGFP-labeled nucleophosmin with deletion of the first 25 amino acids (human) (UniProt P06748); test: co-IP; GFP-Trap nanobeads on lysates of transfected 293T cells, 1 h at 4 °C, washed with 10 mM Tris pH 7.5, 150 mM NaCl, 0.5 mM EDTA, SDS-PAGE and blot; some samples from cells treated with 10 µM NSC348884 for 24 h
[11] = molecular target: mRFP1-labeled nucleophosmin with C21 substituted to alanine (human) (UniProt P06748); test: native gel or EMSA; native PAGE: lysates (10 mM Tris pH 7.5, 150 mM NaCl, 0.5 mM EDTA, 0.5% NP-40) mixed with native buffer (50 mM Tris pH 6.8, 10 mM DTT, 10% glycerol), not boiled, 7.5% Tris-glycine gel without SDS, Western blot; some samples from cells treated with NSC348884 (10 µM, 24 h)
[12] = molecular target: mRFP1-labeled nucleophosmin with C21 substituted to alanine (human) (UniProt P06748); test: native gel or EMSA; semi-native PAGE: same unboiled lysates in native buffer on a gel with SDS (2%), Western blot; some samples from cells treated with NSC348884 (10 µM, 24 h)
[13] = molecular target: eGFP-labeled wild-type nucleophosmin (human) (UniProt P06748); test: native gel or EMSA; native PAGE: lysates (10 mM Tris pH 7.5, 150 mM NaCl, 0.5 mM EDTA, 0.5% NP-40) mixed with native buffer (50 mM Tris pH 6.8, 10 mM DTT, 10% glycerol), not boiled, 7.5% Tris-glycine gel without SDS, Western blot; some samples from cells treated with NSC348884 (10 µM, 24 h)
[14] = molecular target: eGFP-labeled nucleophosmin with deletion of the first 117 amino acids (human) (UniProt P06748); test: co-IP; GFP-Trap nanobeads on lysates of transfected 293T cells, 1 h at 4 °C, washed with 10 mM Tris pH 7.5, 150 mM NaCl, 0.5 mM EDTA, SDS-PAGE and blot; some samples from cells treated with 10 µM NSC348884 for 24 h
[15] = molecular target: eGFP-labeled nucleophosmin with deletion of the first 117 amino acids (human) (UniProt P06748); test: FRET or BRET; FLIM-FRET in living co-transfected cells, eGFP donor and mRFP1 acceptor, eGFP lifetime before and after mRFP1 photobleaching, 37 °C; some cells treated with 10 µM NSC348884 for 2 h
[16] = molecular target: eGFP-labeled nucleophosmin with C21 substituted to phenylalanine (human) (UniProt P06748); test: co-IP; GFP-Trap nanobeads on lysates of transfected 293T cells, 1 h at 4 °C, washed with 10 mM Tris pH 7.5, 150 mM NaCl, 0.5 mM EDTA, SDS-PAGE and blot; some samples from cells treated with 10 µM NSC348884 for 24 h
[17] = molecular target: eGFP-labeled nucleophosmin with deletion of the first 100 amino acids (human) (UniProt P06748); test: as above

- binding [1]: binds
- binding [2]: binds
Molecule: eGFP-labeled nucleophosmin with C21 substituted to alanine (from UniProt P06748 1-294)

- binding [3]: binds
Molecule: eGFP-labeled nucleophosmin with C21 substituted to phenylalanine (from UniProt P06748 1-294)

- binding [4]: no binding
- binding [5]: no binding
Molecule: eGFP-labeled nucleophosmin with deletion of the first 25 amino acids (from UniProt P06748 26-294) (domain or fragment)

- binding [6]: no binding
- binding [7]: no binding
Molecule: eGFP-labeled nucleophosmin with deletion of the first 100 amino acids (from UniProt P06748 101-294) (domain or fragment)

- binding [8]: no binding
- binding [9]: no binding
Molecule: eGFP-labeled nucleophosmin with deletion of the first 117 amino acids (from UniProt P06748 118-294) (domain or fragment)

- binding [10]: binds
Molecule: endogenous nucleophosmin (from UniProt P06748 1-294)

- binding [11]: binds
- binding [12]: binds
Molecule: mRFP1-labeled nucleophosmin with C21 substituted to alanine (from UniProt P06748 1-294)

- binding [13]: binds
Molecule: mRFP1-labeled nucleophosmin with C21 substituted to phenylalanine (from UniProt P06748 1-294)

- binding [14]: no binding
- binding [15]: no binding
Molecule: mRFP1-labeled nucleophosmin with deletion of the first 117 amino acids (from UniProt P06748 118-294) (domain or fragment)

- binding [16]: binds
Molecule: mRFP1-labeled wild-type nucleophosmin (from UniProt P06748 1-294)

- binding [10]: no binding
- binding [17]: no binding
- binding [14]: no binding
Molecule: tumor suppressor p14Arf, endogenous (from UniProt Q8N726 1-132)

- binding [10]: binds
- binding [17]: binds
- binding [14]: binds
B1: fibrillarin, endogenous (protein, UniProt P22087 1-321)
chain: MKPGFSPRGGGFGGRGGFGDRGGRGGRGGFGGGRGRGGGFRGRGRGGGGGGGGGGGGGRGGGGFHSGGNRGRGRGGKRGNQSGKNVMVEPHRHEGVFICRGKEDALVTKNLVPGESVYGEKRVSISEGDDKIEYRAWNPFRSKLAAAILGGVDQIHIKPGAKVLYLGAASGTTVSHVSDIVGPDGLVYAVEFSHRSGRDLINLAKKRTNIIPVIEDARHPHKYRMLIAMVDVIFADVAQPDQTRIVALNAHTFLRNGGHFVISIKANCIDSTASAEAVFASEVKKMQQENMKPQEQLTLEPYERDHAVVVGVYRPPPKVKN
